This is one part of the list. At the low end of the ranking the order means little.

The test deals with GST-SBP-SLBP (stem-loop binding protein) (UniProt Q14493). Kind of test: targeted RNA Bind-n-Seq.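 Also: DESeq read counts versus GST-SBP nonspecific binding control pulldown.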 To be noted: RBNS binding buffer: 25 mM Tris pH 7.5, 150 mM KCl, 3 mM MgCl2, 0.1% Tween, 0.5 mg/mL BSA, 1 mM DTT; 27 nM protein, 750 pM RNA pool; temperature not stated; high values mean tight binding.
For the sequence “GGUCACGUCUCAAUCAACUCAACGCCAGGAGUUUUCUCCUGUAUAUUCAACAGCUCGCAGUCAAG”, the binding signal (log2 fold change) was -0.076. With “GGUCACGUCUCAAUCAACUCUUUUUCAGGAGUUUUCUCCUGUAGUCUCAACAGCUCGCAGUCAAG”, the binding signal (log2 fold change) came out at 0.197.

For the sequence “GGUCACGUCUCAAUCAACUCAGUCCCAGGAGUUUUCUCCUGUAUUUUCAACAGCUCGCAGUCAAG”, the binding signal (log2 fold change) was 0.0336. As for “GGUCACGUCUCAAUCAACUCAAUCUCCAGGGAAAACCCUGGUAUAUUCAACAGCUCGCAGUCAAG”, the binding signal (log2 fold change) is -0.379.

Turning to “GGUCACGUCUCAAUCAACUCAACUCCCAGGGAAAUCCCUGGUUUUCUCAACAGCUCGCAGUCAAG”, the binding signal (log2 fold change) is -0.0386. Regarding “GGUCACGUCUCAAUCAACUCUUUUUCAGGAGUUUACUCCUGCAUUCUCAACAGCUCGCAGUCAAG”, the binding signal (log2 fold change) is 0.161. For the sequence “GGUCACGUCUCAAUCAACUCUAUUUCAGGAGUUUCCUCCUGCAUAUUCAACAGCUCGCAGUCAAG”, the binding signal (log2 fold change) was determined as 0.119. The value for “GGUCACGUCUCAAUCAACUCUUUUUCCAGGGAAAGCCCUGGCAAAUUCAACAGCUCGCAGUCAAG” was 0.0671; that for “GGUCACGUCUCAAUCAACUCAUCCCCCAGGGAAAGCCCUGGUUAAUUCAACAGCUCGCAGUCAAG” was -0.243; that for “GGUCACGUCUCAAUCAACUCUUUAGAGGGGGGGAAAACCCCUUUACCCUCCACGUCAACAGCUCGCAGUCAAG” was -0.393. Regarding “GGUCACGUCUCAAUCAACUCAUCCUCCAGGGAAACCCCUGGCAAACUCAACAGCUCGCAGUCAAG”, the binding signal (log2 fold change) was 0.0588. With “GGUCACGUCUCAAUCAACUCAUUCUCCAGGGAAAACCCUGGCUUACUCAACAGCUCGCAGUCAAG”, the binding signal (log2 fold change) turned out to be 0.21. Take “GGUCACGUCUCAAUCAACUCACACGAGGGGGGGAAAACCCCUUUACCCUCAUUUUCAACAGCUCGCAGUCAAG”: the binding signal (log2 fold change) was 0.00982. In the case of “GGUCACGUCUCAAUCAACUCAAUCCCCAGGGAAAUCCCUGGCAUAUUCAACAGCUCGCAGUCAAG”, the binding signal (log2 fold change) was -0.193. For the sequence “GGUCACGUCUCAAUCAACUCAAUCCCAGGAGUUUUCUCCUGUAGUCUCAACAGCUCGCAGUCAAG”, the binding signal (log2 fold change) came out at 1.19e-05.

Regarding “GGUCACGUCUCAAUCAACUCUUCUCCCAGGGAAAUCCCUGGCUAUGUCAACAGCUCGCAGUCAAG”, the binding signal (log2 fold change) was -0.0858. Under “GGUCACGUCUCAAUCAACUCUAUCUCCAGGGAAAGCCCUGGUAAUUUCAACAGCUCGCAGUCAAG” stands -0.273; under “GGUCACGUCUCAAUCAACUCUCUAGAGGGGGGGAAAACCCCUUUGCCCUCCAAAUCAACAGCUCGCAGUCAAG”, -0.242. As to “GGUCACGUCUCAAUCAACUCUUCCCCCAGGGAAAACCCUGGUUUAUUCAACAGCUCGCAGUCAAG”, the binding signal (log2 fold change) worked out at 0.0898. The value for “GGUCACGUCUCAAUCAACUCCUUAGAGGGGGGGAAAACCCCUUUGCCCUCACACUCAACAGCUCGCAGUCAAG” was -0.122; that for “GGUCACGUCUCAAUCAACUCAAUAGAGGGGGGGAAAACCCCUUUACCCUCAACCUCAACAGCUCGCAGUCAAG” was -0.515; that for “GGUCACGUCUCAAUCAACUCUAUCUCCAGGGAAAUCCCUGGCAUACUCAACAGCUCGCAGUCAAG” was 0.136. As for “GGUCACGUCUCAAUCAACUCGUUUUCAGGAGUUUACUCCUGCUUAUUCAACAGCUCGCAGUCAAG”, the binding signal (log2 fold change) came out at 0.329. As to “GGUCACGUCUCAAUCAACUCAACGCCAGGAGUUUUCUCCUGCUUAUUCAACAGCUCGCAGUCAAG”, the binding signal (log2 fold change) was -0.141. Take “GGUCACGUCUCAAUCAACUCCACUGAGGGGGGGAAAACCCCUUUACCCUCCACAUCAACAGCUCGCAGUCAAG”: the binding signal (log2 fold change) was -0.0132.

Consider “GGUCACGUCUCAAUCAACUCUACUCCAGGAGUUUUCUCCUGCAAUUUCAACAGCUCGCAGUCAAG”, for which the binding signal (log2 fold change) came to 0.0617. For “GGUCACGUCUCAAUCAACUCCAACGAGGGGGGGAAAACCCCUUUACCCUCAAUUUCAACAGCUCGCAGUCAAG”, the binding signal (log2 fold change) was -0.626. As to “GGUCACGUCUCAAUCAACUCUUACGAGGGGGGGAAAACCCCUUUACCCUCCAAAUCAACAGCUCGCAGUCAAG”, the binding signal (log2 fold change) was -0.152. “GGUCACGUCUCAAUCAACUCUUCUUCAGGAGUUUCCUCCUGCAUUCUCAACAGCUCGCAGUCAAG”: the binding signal (log2 fold change) was -0.0103. Take “GGUCACGUCUCAAUCAACUCAAUUUCAGGAGUUUGCUCCUGCUUACUCAACAGCUCGCAGUCAAG”: the binding signal (log2 fold change) was -0.0335. Under “GGUCACGUCUCAAUCAACUCUCUAGAGGGGGGGAAAACCCCUUUACCCUCAUAAUCAACAGCUCGCAGUCAAG” stands -0.245; under “GGUCACGUCUCAAUCAACUCACACGAGGGGGGGAAAACCCCUUUACCCUCUAUCUCAACAGCUCGCAGUCAAG”, -0.155. For the sequence “GGUCACGUCUCAAUCAACUCAGUCCCCAGGGAAAACCCUGGUUUAUUCAACAGCUCGCAGUCAAG”, the binding signal (log2 fold change) is -0.155. Regarding “GGUCACGUCUCAAUCAACUCAAUUUCCAGGGAAAUCCCUGGCUUACUCAACAGCUCGCAGUCAAG”, the binding signal (log2 fold change) is -0.242. Regarding “GGUCACGUCUCAAUCAACUCAUCUUCCAGGGAAAUCCCUGGCGUAUUCAACAGCUCGCAGUCAAG”, the binding signal (log2 fold change) was -0.269. Under “GGUCACGUCUCAAUCAACUCUAGUCCCAGGGAAACCCCUGGCAUAUUCAACAGCUCGCAGUCAAG” stands -0.32; under “GGUCACGUCUCAAUCAACUCGUCUUCAGGAGUUUACUCCUGCAUUUUCAACAGCUCGCAGUCAAG”, -0.118. On to “GGUCACGUCUCAAUCAACUCACACGAGGGGGGGAAAACCCCUUUACCCUCCACAUCAACAGCUCGCAGUCAAG”, for which the binding signal (log2 fold change) turned out to be 0.116. The value for “GGUCACGUCUCAAUCAACUCUUUCCCAGGAGUUUUCUCCUGCUAACUCAACAGCUCGCAGUCAAG” was 0.176; that for “GGUCACGUCUCAAUCAACUCAACUCCCAGGGAAAUCCCUGGCAUUCUCAACAGCUCGCAGUCAAG” was -0.0583.

In the case of “GGUCACGUCUCAAUCAACUCUAUUCCAGGAGUUUACUCCUGUAUAUUCAACAGCUCGCAGUCAAG”, the binding signal (log2 fold change) is -0.17.

For “GGUCACGUCUCAAUCAACUCUCAAGAGGGGGGGAAAACCCCUUUACCCUCAAUAUCAACAGCUCGCAGUCAAG”, the binding signal (log2 fold change) is -0.838. Take “GGUCACGUCUCAAUCAACUCAAGGUCAGGAGUUUACUCCUGUUUAUUCAACAGCUCGCAGUCAAG”: the binding signal (log2 fold change) is -0.241. “GGUCACGUCUCAAUCAACUCAUCCUCAGGAGUUUCCUCCUGCAAUCUCAACAGCUCGCAGUCAAG”: the binding signal (log2 fold change) stood at 0.187. Take “GGUCACGUCUCAAUCAACUCUAUCGAGGGGGGGAAAACCCCUUUACCCUCAUUAUCAACAGCUCGCAGUCAAG”: the binding signal (log2 fold change) was -0.151. The value for “GGUCACGUCUCAAUCAACUCAAUCCCAGGAGUUUACUCCUGUUAUGUCAACAGCUCGCAGUCAAG” was 0.0212. The value for “GGUCACGUCUCAAUCAACUCAUUUUCCAGGGAAACCCCUGGUUAUUUCAACAGCUCGCAGUCAAG” was -0.221.

(Values after paper PMC5892938.)
